Assay results reported in the supplement of paper PMC3334620.
Whole data set: some 33,000 sequences, median “E-score (-0.5 to 0.5)” near -0.016, cut for the highest 2% near 0.32. Some of the results follow.

Molecular target: T1, Stp1 (UniProt B3LFK1)
T1 sequence: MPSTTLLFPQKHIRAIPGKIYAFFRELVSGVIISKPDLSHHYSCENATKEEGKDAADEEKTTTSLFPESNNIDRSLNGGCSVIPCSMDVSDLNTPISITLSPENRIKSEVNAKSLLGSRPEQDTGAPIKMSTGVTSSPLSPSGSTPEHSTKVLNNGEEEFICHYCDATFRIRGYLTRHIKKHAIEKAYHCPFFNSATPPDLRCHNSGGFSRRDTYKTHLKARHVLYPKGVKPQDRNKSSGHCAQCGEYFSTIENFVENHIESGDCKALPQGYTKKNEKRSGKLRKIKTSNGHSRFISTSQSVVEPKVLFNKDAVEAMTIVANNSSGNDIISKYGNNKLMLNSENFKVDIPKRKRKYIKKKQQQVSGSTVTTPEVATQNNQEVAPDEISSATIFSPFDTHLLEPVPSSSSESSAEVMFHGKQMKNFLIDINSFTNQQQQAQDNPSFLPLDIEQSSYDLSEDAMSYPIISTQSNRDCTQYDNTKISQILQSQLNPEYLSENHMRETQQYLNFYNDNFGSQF
Experiment: PBM E-score (8-mer binding enrichment) (E-score (-0.5 to 0.5)); higher = stronger / more preferred TF binding; most listed sequences are background and not binding sites
Settings: protein concentration: 200 nM; construct: GST-full length
Method in brief: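 GST-tagged yeast TFs (full-length or DNA-binding domain) were made by PURExpress in vitro transcription/translation and applied at about 100-200 nM to universal all-10-mer Agilent arrays. The arrays were made double-stranded by primer extension, on fresh or once-stripped slides. Bound protein was detected with fluorescent anti-GST, and scans were normalised with masliner. Each ungapped eight-base word, pooled with its reverse complement, received an E-score (modified Wilcoxon-Mann-Whitney statistic) from the Universal PBM Analysis Suite.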

Sequence	PBM E-score
AAGCTGTC	-0.113
ACTAGTAC	0.0933
ACTCCCAA	-0.149
CTCGAAAG	-0.053
CGTTCTAG	0.0253
CTAGACAG	-0.131
AATTAAGA	0.00198
GATCTTCA	-0.025
ACTAAAAA	0.1
GCCTTTTA	0.25
CAATGACA	0.113
CTACAGCA	-0.0439
GAGACCAA	-0.0978
ACGATGAG	0.0505
GTGTGCAA	-0.0959
GCTGTTGA	0.169
CCCTAATA	-0.0986
GCATTCAA	0.108
GAGACATA	-0.0964
CGATCACA	0.081
ACACACCT	-0.0579
CGACCGCG	-0.0161
CGCCTGAG	0.0354
GAAATAAA	0.117
AATGGTAA	0.135

Sequence	PBM E-score
CAAACTGA	0.0414
CATAAGTA	-0.138
CCACCCCA	-0.104
ATATTACG	0.186
CGGACGCA	0.11
ACCACGAG	-0.0233
AGCTTGTC	-0.0324
AATGATCG	-0.0176
ATTTATAG	0.00848
CGCCCGTA	-0.183
CGCCTCGC	0.394
ACATTAGC	0.059
ACTATGAT	-0.05
ACTTACTC	-0.151
CATTAGAA	0.0803
ATGGGACA	-0.14
GCACGGCC	0.415
AATTGAGA	0.111
CCGATTAC	0.039
GAGGCCAA	-0.164
ATCAAATC	0.0401
CAGGACAG	-0.133
GGGCACCC	-0.0477
ACCAGTAT	-0.033
AAGAAACA	0.23

Sequence	PBM E-score
TACCACTA	-0.0678
ACTGGGTA	-0.165
AAATTTCA	-0.0423
ACCTGGCA	0.00764
ATCTTATG	0.169
TGCTAACA	0.0225
ATTGGATA	-0.0216
CGTTTCAA	0.196
GTAGACCA	-0.11
AATATCGT	0.141
AGAATACA	0.0536
GATGGCGA	0.0798
CGGGAGGA	-0.0414
AGGGCAGG	-0.0487
ATTCTGCG	0.0136
GATGCTCA	-0.0782
AATCTGGC	-0.102
AACGAGCG	0.132
AAGTCGCG	0.107
ACAGTAAT	0.104
TAAAATAA	0.198
CGGACTTC	-0.168
GCTCGACC	-0.00701
CACCTATC	0.02
TCGGTTCA	-0.0318

Sequence	PBM E-score
CTACCGGA	-0.184
GGACAGTA	0.13
CTGCTTTA	0.0746
CACCTGAA	0.00559
CATTAAGG	0.055
CGACACCG	0.0193
AGCTATGG	-0.35
AAATAACT	0.237
ATACCATA	0.0791
CGTTGAGC	0.0153
ACGCCCGT	0.0535
TGGACGAA	0.178
CTGGTGCC	0.252
GGAGTGGA	-0.186
CAACCTAA	0.0337
GAAAGGCA	0.376
GTCGACGA	0.0158
CCCTGGTA	-0.202
ATCTGTAC	0.0678
CATGAAAC	0.0822
ACGGCGAA	0.465
TACGTCCA	-0.0569
AGTGATCG	-0.106
ATGAACGG	0.194
CTAGCGTC	-0.191

Sequence	PBM E-score
ACTGTATA	0.0748
CTGACGTA	-0.218
CTCGGTGA	-0.00917
AGGATCAC	-0.134
CCCTCAAG	-0.258
ACCTCAAC	-0.113
CCATCAGA	-0.153
CAAAGAAC	0.138
GTATAGAA	0.147
CCAGAAGA	-0.0522
CCTTTCAA	0.0517
ACGCGATG	-0.0652
CTCCCGAC	-0.159
AAGGCTTC	-0.034
GCGCAGAC	0.21
ACAGCCCC	-0.177
GAGAGATA	0.0131
CCTACAAG	-0.0854
ATGATAGA	-0.0649
CGACTCTA	-0.183
ACCAAACA	0.201
CCCTGACC	-0.133
CACCACAG	-0.131
GGGTGAGA	-0.211
CAGAAATG	0.0836

Sequence	PBM E-score
CGGTTCAG	-0.23
CCTCTTTA	-0.092
GTAGTGTA	0.0564
ATGGACAT	0.0787
AACCCATC	-0.212
ACCATTTC	0.0143
CCCGTAAG	-0.0633
GCGAGCCA	-0.162
CAGATCGG	0.00691
CGTACAGC	0.0658
ACTCTGCA	-0.124
ATTATTGG	0.00493
CCTAGATC	-0.254
GCTAAAGC	0.00155
GACCCAAA	-0.029
TAAGTGAA	0.0191
CGCCACCC	-0.0778
GGCAAGAC	0.13
ATCACCTG	-0.0957
CAAAATAC	0.139
CCAATTGA	-0.0301
GCCCTCCC	-0.141
AGCGATAT	0.048
ATGCACTA	0.0688
GTTATTCA	0.136

Sequence	PBM E-score
ATAATGTA	0.0185
CAGTGTTA	-0.03
AACAGGCG	-0.0221
GCGTGGCA	0.261
CCGCTTGA	0.171
GATCGACC	-0.0995
ACCCGACC	-0.227
TAGGGCAA	0.0639
CAGTCATA	-0.0911
CATGGACA	-0.0411
CAGCTATG	-0.158
ATACCCCG	-0.0762
CATTCAGC	-0.0399
AAGGGCAA	0.149
AGTGACAG	-0.0243
GATCAGAA	-0.244
CTACAAAG	-0.0173
CATGTCCA	0.0739
GTCGCGCA	-0.0403
CTACCCAA	-0.00763
AAATGTAA	0.207
AGTTTCTC	-0.051
